# Data published in PubChem BioAssay AID463173 (ICCB-Longwood Screening Facility, Harvard Medical School, 2010).
# Among all 52,000 compounds or so, about 1,700 (3.3%) were called active. No stated cut-off is given here; in the data, active means survival mostly below about 52% (no sharp cut-off); inactive means mostly above about 56%. The list shows a part of the results.
# Tested on: Wild type
# Experiment: S. aureus survival, RN4220 and DeltatarO strains – OD600, teichoic acid synthesis inhibitors, primary screen (AID 463173)
# Conditions: S. aureus RN4220 wild type/DeltatarO growth, OD600, 18 h, stronger effect = lower value, screened at 18.75 µg/mL (by protocol)
row,Compound,survival
1,CCN1CCN(Cc2nc3cc(NC(=O)c4ccccc4[N+](=O)[O-])ccc3n2CC)CC1,inactive: 86%
2,Cc1cc(C)c2c(-n3cccc3)c(C(=O)NCCCN3CCCCC3)sc2n1,inactive: 86%
3,COc1ccc(NC(=O)Cn2cc(C#N)c3ccccc32)cc1,inactive: 115%
4,COc1ccc(NC(=O)c2ccc3c(c2)c(C)c(C)n3Cc2ccc(F)cc2)cc1,inactive: 82%
5,O=C(CCc1ccccc1)NCCc1csc(-c2cccc(F)c2)n1,inactive: 68%
6,Cc1ccccc1OCCSc1nc(C)c(Cc2ccccc2)c(=O)[nH]1,inactive: 107%
7,O=C(C1CCCN(S(=O)(=O)c2ccccc2)C1)N1CCCc2ccccc21 (stereo not given),inactive: 103%
8,COc1cccc(CNC(=O)C(C)n2ccc3cc(S(=O)(=O)N4CCCCCC4)ccc32)c1 (stereo not given),inactive: 99%
9,COc1ccc(-c2nn(C)c3sc(C(=O)N4CCN(c5ccccc5F)CC4)cc23)cc1OC,inactive: 81%
10,CC(=O)Nc1cc(C)ccc1C,inactive: 109%
11,Cc1ccc(-c2[nH]c3ccccc3c2SCCNC(=O)c2ccc(S(=O)(=O)N3CCOCC3)cc2)cc1,inactive: 81%
12,COc1ccccc1-c1cc(NC(=O)COc2ccccc2Cl)n(-c2ccccc2)n1,inactive: 73%
13,Cc1cccc2c1-c1sc(C(=O)NCCc3ccc(Cl)cc3)cc1CO2,inactive: 101%
14,CC1CCN(C(=O)c2cnn(-c3ccc(Cl)cc3)c2C2CCN(C(=O)OC(C)(C)C)CC2)CC1,inactive: 71%
15,COc1cccc(CNC(=O)CN2C(=O)CSc3ccc(S(=O)(=O)N(C)C)cc32)c1,inactive: 88%
16,Cc1ccc(-c2nc3sccn3c2Nc2ccccc2C)cc1,inactive: 49%
17,CN(C)C(=O)CCSc1nc2cc(Cl)ccc2o1,inactive: 116%
18,Cn1c(SCC(=O)Nc2ccccc2)nc2ccccc2c1=O,inactive: 105%
19,Cc1c(C(=O)OC2CCCC2)[nH]c2c1C(=O)CC(c1ccc(C(C)(C)C)cc1)C2 (stereo not given),inactive: 89%
20,COc1nc(-c2ccccc2)ccc1-c1noc(C(C)C)n1,inactive: 88%
21,CC(C)(C)C1CCc2c(sc(NC(=O)c3cccc(Cl)c3)c2C(N)=O)C1 (stereo not given),inactive: 75%
22,COc1ccc(NC(=O)CSc2oc(-c3ccc(C)cc3)nc2S(=O)(=O)c2ccc(C)cc2)c(OC)c1,inactive: 80%
23,CCC(=O)Oc1c(Sc2ccc(Cl)cc2)c(C)nn1C(C)(C)C,inactive: 60%
24,CCN(CCCNC(=O)c1cc2cc3cc(OC)ccc3nc2s1)c1cccc(C)c1,inactive: 73%
25,Cc1cc2c(cc3c(SCc4ccc(Cl)cc4)nnc(C)n32)o1,inactive: 82%
